This test addresses T1, IL-25–IL-17RB complex (2:2) (human, UniProt Q9H293 30-177; Q9NRM6 18-288).
T1 construct: IL-25 (IL-17E), human, amino acids 30-177; signal peptide in the construct; IL-17 receptor B (IL-17RB), human, amino acids 1-288; also called RB–IL-25; source: IL-25 and IL-17RB co-expressed in Expi293F GnTI- cells, purified (Ni-NTA, SEC) for cryo-EM; copies: 2 + 2
T1 sequence (looked up) 1: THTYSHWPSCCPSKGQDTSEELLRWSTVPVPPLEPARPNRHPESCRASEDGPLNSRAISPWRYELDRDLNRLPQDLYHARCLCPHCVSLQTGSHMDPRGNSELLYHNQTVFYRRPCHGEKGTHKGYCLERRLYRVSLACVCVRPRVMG
T1 sequence (looked up) 2: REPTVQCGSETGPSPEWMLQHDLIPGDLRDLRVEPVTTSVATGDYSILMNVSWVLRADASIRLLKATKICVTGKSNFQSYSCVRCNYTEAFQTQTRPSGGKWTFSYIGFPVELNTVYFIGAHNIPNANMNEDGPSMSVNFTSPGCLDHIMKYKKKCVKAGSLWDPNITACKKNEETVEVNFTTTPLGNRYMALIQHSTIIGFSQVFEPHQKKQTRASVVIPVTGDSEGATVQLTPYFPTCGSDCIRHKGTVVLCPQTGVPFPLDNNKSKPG
Briefly: SPR; Biacore T100; about 300 RU of site-specifically biotinylated IL-17RA immobilized on a Series S Sensor Chip SA; analytes in twofold serial dilutions; regeneration 2 M MgCl2; steady-state affinity analysis. The note with it: both partners purified.

B1: site-specifically biotinylated IL-17RA, immobilized (receptor)
chain: not shown
modifications: biotin (site-specific, by the biotin ligase BirA)
notes: signal peptide in the construct; IL-17 receptor A (IL-17RA), human, […]; The methods list no IL-17RA construct with an Avitag, though only proteins with Avitags are said to have been biotinylated; the limits […] are those of the only soluble IL-17RA named; also called immobilized IL-17RA; source: Expi293F cells, purified (Ni-NTA, SEC), biotinylated with BirA
For orientation: Kd means the concentration at which binding is half-saturated. A low value points to tighter binding. B1 came in with a Kd of 5.2 µM.
